Data reported in patent US12447159B2 (AELIS FARMA, priority 2018, dated 2025).

Legend:
[1] = system: THC-induced impairment of reality testing; experiment: THC-induced impairment of reality testing (mediated aversion); format: in vivo; settings: per os 3 h before THC 1 mg/kg ip; mice
Method: The realty-testing consists in four phases with different pairings (a pairing refers to the association of two stimuli at a time): habituation (3 days), preconditioning (6 pairings odor/taste, 12 days), conditioning (i.e. 3 pairings odor/injection of an agent inducing malaise, LiCl, 6 days), recovery day (1 day with water) and finally the tests (mediated aversion and direct aversion tests).
Mice were water deprived for 24 hours before starting the habituation that consisted in 1-hour access to water per day during 3 days in order to get used to receive liquid every day for 1 hour, and thus reach a constant consumption over the protocol. This was followed by the preconditioning phase in which the mice were given 1-hour access per day to a mixed solution (O1T1) with one odor (either almond or banana, O1) and one taste (either maltodextrine or sucrose, T1) in water. On day 2, mice received 1-hour access to the solution with the odor and taste not given the previous day (02T2). After 6 pairings of O1T1 and O2T2 (12 days), the conditioning phase was started.
At the first day of conditioning, mice were given 1-hour access to odorized water (O1) directly followed by intraperitoneal injection of saline. The following day, mice were given access to the second odorized water (O2) directly followed by an intraperitoneal injection of LiCl (0.3 M) at a volume of 10 ml/kg to create gastric discomfort. After 3 pairings of O1/saline and O2/LiCl (6 days), mice were given a recovery day with 1-hour access to water.
The next day, mediated aversion was assessed by performing a two-choice test with two bottles of water containing one of the two tastes: the taste paired with the odor associated with LiCl injection (T2) called C+; or the taste paired with the other odor that was associated with the saline injection (T1) called C-. […]

CYP 1A = experiment: CYP inhibition in human liver microsomes; settings: 10 μM
rats and dogs = experiment: 28-day oral toxicity studies (GLP), results printed for rats and dogs together
[2] = system: intravenous self-administration of THC; experiment: Intravenous self-administration of THC in non-human primates; format: in vivo, Squirrel monkeys (Saimiri Sciureus); settings: per os 4 h before testing; THC 4 μg/kg/injection iv, FR10; monkeys
Method: Four male Squirrel monkeys (Saimiri Sciureus) were used because they are the species in which THC self-administration can be the most reliably studied.
Monkeys were trained to lever-press to get an intravenous (iv) injection of THC (4 μg/kg/injection) under a ten-response fixed-ratio schedule of drug injection (FR10, each 10th response on the lever produced an injection of THC).
Number of lever presses and number of injections per session were recorded. Response rates are calculated based on available session time for responding (i.e., timeout time is subtracted). Statistics are performed for number of injections and response rates per session using either one-way or two-way repeated measures ANOVA with the THC dose or the time as factors.

conscious dogs = experiment: Blood pressure, heart rate, electrocardiogram and body temperature in conscious dogs (telemetry, GLP)
Method: The study was carried out following general requirements of GLP and the study design follows the ICH S7A guideline (2001) for Safety Pharmacology.
The study involved 4 male Beagle which were previously instrumented with telemetry transmitters for arterial blood pressure, body temperature and electrocardiogram measurements.
The study was conducted in two parts. […] Telemetry measurements of arterial blood pressure, heart rate, body temperature and electrocardiogram (epicardial Lead II) started at least 2 hours before each dosing and continued for at least 24 hours after dosing.

CYP2B6 = experiment: CYP induction (mRNA level); format: in vitro ADME; settings: 10 nM, 100 nM and 1 μM
dogs = experiment: 28-day oral toxicity study (GLP) in dogs; settings: for Blood chemistry / Cardiovascular parameters / Organ weight / Urinalysis: dogs
Excerpt: […].

BCRP = BCRP (Homo sapiens, UniProt Q9UNQ0); experiment: Cellular transporter inhibition, CHO cells (fluorometry); settings: 10 μM
[3] = molecular target: T1, human CB1 (hCB1) receptor (Homo sapiens, UniProt P21554); experiment: THC-induced increase in MAPK phosphorylation, HEK-293 cells stably transfected with hCB1 (western blot, P-MAPK/CoxIV); format: cell-based; settings: THC 1 μM, 5 min; HEK-293 stably expressing the hCB1
T1 construct: expressed in transfected cells; host or cells: HEK-293
Method: The difference in the concentrations of THC used in the two experiments is related to the different efficiency of transfection of hCB1 cDNA plasmid, which is stable in Experiment 1 and transient in Experiment 2.
MAPK phosphorylation (P-Erk1/2MAPK proteins) was measured by western blot. In experiment 1 the mitochondrial marker CoxIV and in experiment 2 the un-phosphorylated MAPK proteins were used as loading controls. The P-MAPK/CoxIV and P-MAPK/MAPK ratios were calculated and the data expressed as % of vehicle-treated cells.

CYP 3A = experiment: CYP inhibition in human liver microsomes; settings: 10 μM

T1 sequence (P21554 whole entry): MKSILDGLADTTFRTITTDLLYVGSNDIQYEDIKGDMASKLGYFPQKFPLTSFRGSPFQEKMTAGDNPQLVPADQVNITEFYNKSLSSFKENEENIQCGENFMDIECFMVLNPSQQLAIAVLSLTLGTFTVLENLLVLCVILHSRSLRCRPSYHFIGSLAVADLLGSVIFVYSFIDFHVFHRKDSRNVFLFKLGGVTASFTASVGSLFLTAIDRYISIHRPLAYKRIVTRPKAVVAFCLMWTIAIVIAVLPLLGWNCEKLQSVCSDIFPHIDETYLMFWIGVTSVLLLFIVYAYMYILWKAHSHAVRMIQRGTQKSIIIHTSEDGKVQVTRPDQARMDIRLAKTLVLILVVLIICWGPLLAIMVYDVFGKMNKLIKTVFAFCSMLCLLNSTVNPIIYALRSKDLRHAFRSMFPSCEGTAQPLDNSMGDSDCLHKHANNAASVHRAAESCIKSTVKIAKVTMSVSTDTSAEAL
Chain of BCRP (Q9UNQ0 whole entry): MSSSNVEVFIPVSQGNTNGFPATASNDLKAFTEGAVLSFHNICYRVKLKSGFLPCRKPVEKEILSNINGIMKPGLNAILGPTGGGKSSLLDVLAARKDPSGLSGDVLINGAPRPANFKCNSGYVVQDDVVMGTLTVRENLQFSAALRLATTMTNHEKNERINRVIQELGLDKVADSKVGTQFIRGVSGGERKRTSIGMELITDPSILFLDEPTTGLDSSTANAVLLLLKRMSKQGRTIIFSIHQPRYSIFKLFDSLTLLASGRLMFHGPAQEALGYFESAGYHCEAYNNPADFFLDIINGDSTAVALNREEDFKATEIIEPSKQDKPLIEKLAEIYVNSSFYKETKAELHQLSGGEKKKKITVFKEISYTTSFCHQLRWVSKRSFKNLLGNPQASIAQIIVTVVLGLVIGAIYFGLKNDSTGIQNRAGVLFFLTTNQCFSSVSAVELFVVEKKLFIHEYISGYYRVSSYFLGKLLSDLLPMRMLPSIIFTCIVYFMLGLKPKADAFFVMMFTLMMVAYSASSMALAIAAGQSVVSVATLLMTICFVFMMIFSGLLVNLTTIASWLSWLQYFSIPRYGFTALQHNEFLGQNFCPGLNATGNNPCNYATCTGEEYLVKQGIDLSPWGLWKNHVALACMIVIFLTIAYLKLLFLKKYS

Q: With COc1ccc(CO[C@H]2CC[C@@]3(C)C(=CC[C@H]4[C@@H]5CC[C@H](C(C)=O)[C@@]5(C)CC[C@@H]43)C2)cc1 [3pMBP, 3β-(4-methoxybenzyloxy)pregn-5-en-20-one] as the molecule, how does the “% inhibition” value [1] read?
A: 100%

Q: And the ID50 [1]?
A: <0.015 mg/kg

Q: What about the ID100 [1] of the same molecule?
A: 0.015 mg/kg

Q: And the “Inhibition of CYP 1A activity” value (CYP 1A)?
A: no significant inhibition

Q: And the Body temperature (rats and dogs; 2 mg/kg, 28 days)?
A: NOE

Q: And the Clinical signs (rats and dogs; 2 mg/kg, 28 days)?
A: NOE

Q: And the Mortality (rats and dogs; 2 mg/kg, 28 days)?
A: NOE

Q: What about the Body temperature (rats and dogs; 9 mg/kg, 28 days) of the same molecule?
A: NOE

Q: And the Clinical signs (rats and dogs; 9 mg/kg, 28 days)?
A: NOE

Q: What about the Mortality (rats and dogs; 9 mg/kg, 28 days) of the same molecule?
A: NOE

Q: And the Body temperature (rats and dogs; 36 mg/kg, 28 (+14) days)?
A: NOE

Q: And the Clinical signs (rats and dogs; 36 mg/kg, 28 (+14) days)?
A: NOE

Q: And the Mortality (rats and dogs; 36 mg/kg, 28 (+14) days)?
A: NOE

Q: And the Body temperature (rats and dogs; 36 mg/kg, 28 days)?
A: NOE

Q: And the Clinical signs (rats and dogs; 36 mg/kg, 28 days)?
A: NOE

Q: What about the Mortality (rats and dogs; 36 mg/kg, 28 days) of the same molecule?
A: NOE

Q: What about the ID50 [2] of the same molecule?
A: 5 µg/kg

Q: What about the ID100 [2] of the same molecule?
A: 0.015 mg/kg

Q: What about the “Heart rate high frequency rhythms and heart rate variability” value (conscious dogs; 9 mg/kg only, dog) of the same molecule?
A: decrease in heart rate high frequency rhythms and oscillations associated with a decrease in heart rate variability

Q: And the “Blood pressure, heart rate, electrocardiogram and body temperature” value (conscious dogs; 2, 9 and 36 mg/kg, single oral)?
A: did not modify

Q: What about the “Expression of CYP2B6” value (CYP2B6) of the same molecule?
A: did not increase the expression

Q: What about the “NOEL (Non observed effect level)” value (dogs; dog) of the same molecule?
A: > 36 mg/kg/day/28 days

Q: What about the Blood chemistry (dogs; 2 mg/kg, 28 days) of the same molecule?
A: NOED

Q: And the Cardiovascular parameters (dogs; 2 mg/kg, 28 days)?
A: NAR, NOED

Q: What about the Organ weight (dogs; 2 mg/kg, 28 days) of the same molecule?
A: NOED

Q: What about the Urinalysis (dogs; 2 mg/kg, 28 days) of the same molecule?
A: NOED

Q: What about the Blood chemistry (dogs; 9 mg/kg, 28 days) of the same molecule?
A: NOED

Q: And the Cardiovascular parameters (dogs; 9 mg/kg, 28 days)?
A: NAR, NOED

Q: And the Organ weight (dogs; 9 mg/kg, 28 days)?
A: NOED

Q: And the Urinalysis (dogs; 9 mg/kg, 28 days)?
A: NOED

Q: And the Blood chemistry (dogs; 36 mg/kg, 28 (+14) days)?
A: NOED

Q: And the Organ weight (dogs; 36 mg/kg, 28 (+14) days)?
A: NOED

Q: What about the Urinalysis (dogs; 36 mg/kg, 28 (+14) days) of the same molecule?
A: NOED

Q: What about the Blood chemistry (dogs; 36 mg/kg, 28 days) of the same molecule?
A: NOED

Q: And the Cardiovascular parameters (dogs; 36 mg/kg, 28 days)?
A: NAR, NOED

Q: And the Organ weight (dogs; 36 mg/kg, 28 days)?
A: NOED

Q: And the Urinalysis (dogs; 36 mg/kg, 28 days)?
A: NOED

Q: What about the “Activity of BCRP” value (BCRP) of the same molecule?
A: did not modify the activity

Q: What about the “% inhibition” value [3] of the same molecule?
A: 60%

Q: What about the ID100 [3] of the same molecule?
A: 10 nM

Q: What about the “Inhibition of CYP 3A activity” value (CYP 3A) of the same molecule?
A: no significant inhibition
